Biological target: recombinant domain ED-B of Fibronectin (Homo sapiens (Human), UniProt P02751)
Experiment: surface plasmon resonance, BIAcore, monomer fraction of the scFv
Protocol: The kinetic coefficients concerning association and dissociation of antibody fragments are determined by plasma surface resonance with BIAcore 1000 (Pharmacia) following known protocols. Few clones which were positive to the ELISA test are chosen for the measurements. The measurements are carried out with the monomer fraction of antibody fragments scFvs as described in relevant documents, using chips covered both with ED-B and with 7B89.

koff: 0.006 s⁻¹
kon: 60000 M⁻¹ s⁻¹
B1: monoclonal scFv antibody ME-4C (scFv)
scFv: [about 100 residues not written out]QKSAPFDYWGQGTLVTVSRGGGGSGGGGSGGGGSSELTQDPAVSVALGQTVRITCQGDSLRSYYASWYQQKPGQAPVLVIYGKNNRPSGIPDRFSGSSSGNTASLTITGAQAEDEADYYCNSSAPVSNRVVFGGGTKLTVLG
